These results are taken from the antibiotic and cytotoxicity screens of Wong et al. (2023).

This is one part of the list.

This assay deals with HSkMC (human skeletal muscle cells). As to the kind of experiment: cytotoxicity call (relative viability < 0.9). The following applies: 10 µM.
Regarding `CCCCOc1ccc([C@@H]2c3c(oc4ccc(Br)cc4c3=O)C(=O)N2CCCN2CCOCC2)cc1`, the cytotoxicity call is “inactive”. Consider `CC1=CC(=O)[N-]S(=O)(=O)O1.[K+]`, for which the cytotoxicity call is “inactive”. Consider `C[C@H]1CN([C@@H](C)CO)C(=O)c2cc(NC(=O)CCN3CCOCC3)ccc2O[C@H]1CN(C)Cc1ccncc1`, for which the cytotoxicity call is “inactive”. With `Cc1cc(C)n(-c2n[nH]c(=S)n2N)n1` the entry was “inactive”; with `C[C@@H]1CN([C@H](C)CO)C(=O)c2cccc(NC(=O)c3cnccn3)c2O[C@H]1CN(C)S(=O)(=O)c1cccs1`, “inactive”; with `CC(C)NC(=O)N(C)C[C@H]1Oc2ccc(NC(=O)Nc3ccc4c(c3)OCO4)cc2C(=O)N([C@H](C)CO)C[C@H]1C`, “inactive”.

Regarding `C[C@@H]1CCCCO[C@H](CN(C)Cc2ccc(C(F)(F)F)cc2)[C@H](C)CN([C@H](C)CO)C(=O)c2cc(NS(=O)(=O)c3cccs3)ccc2O1`, the cytotoxicity call was “inactive”.

For `Cn1cncc1[C@@](N)(c1ccc(Cl)cc1)c1ccc2c(c1)c(-c1cccc(Cl)c1)cc(=O)n2C`, the cytotoxicity call is “inactive”. The entry for `C[C@@H]1CN([C@@H](C)CO)C(=O)Cc2cc(NC(=O)Cc3ccccc3)ccc2O[C@@H]1CN(C)Cc1ccc(Oc2ccccc2)cc1` is “inactive”; for `C[C@H]1CN([C@@H](C)CO)C(=O)CCCn2cc(nn2)CO[C@@H]1CN(C)S(=O)(=O)c1ccc2ccccc2c1` it is “inactive”. With `Cc1ccc(-c2ccc3c(c2)O[C@@H](CN(C)Cc2cncnc2)[C@H](C)CN([C@@H](C)CO)S3(=O)=O)cc1` the entry was “inactive”; with `C[C@H](CO)N1C[C@H](C)[C@H](CN(C)Cc2ccc(C(F)(F)F)cc2)Oc2ccc(NC(=O)Nc3ccc(F)cc3)cc2C1=O`, “inactive”. With `C[C@@H]1CN([C@@H](C)CO)C(=O)c2cc(NS(=O)(=O)c3cccs3)ccc2O[C@H]1CN(C)S(=O)(=O)c1cccs1` the entry was “inactive”; with `C[C@H](CO)N1C[C@H](C)[C@@H](CN(C)C(=O)Nc2ccc(F)cc2)OCCCC[C@H](C)Oc2ccc(NC(=O)CCC(F)(F)F)cc2C1=O`, “inactive”.

For `C[C@@H]1CN([C@@H](C)CO)C(=O)c2cc(NC(=O)Nc3ccc(F)cc3)ccc2O[C@@H](C)CCCCO[C@H]1CN(C)C(=O)c1ccccc1`, the cytotoxicity call was “inactive”. For the compound `O=C(C[C@H]1C[C@H]2c3cc(NC(=O)Nc4ccc(C(F)(F)F)cc4)ccc3O[C@H]2[C@H](CO)O1)NCc1cc(F)ccc1F`, the cytotoxicity call is “inactive”.

For the compound `COc1cccc(OCc2ccc(Cn3nc(NC(=O)Nc4c(OC)cccc4OC)c4ccccc43)cc2)c1`, the cytotoxicity call was “inactive”. With `N=C(N)/N=C(\N)N1CCOCC1` the entry was “inactive”; with `O=C(C[C@H]1CC[C@H]2[C@@H](COC[C@@H](O)CN2S(=O)(=O)c2ccccc2)O1)NCCN1CCCCC1`, “inactive”. With `CC(C)NC(=O)N(C)C[C@H]1OCc2cnnn2CCCC(=O)N([C@H](C)CO)C[C@@H]1C` the entry was “inactive”; with `C[C@@H]1CCCCO[C@H](CN(C)S(=O)(=O)c2ccc(F)cc2)[C@H](C)CN([C@H](C)CO)C(=O)c2cc(NC(=O)Nc3cccc4ccccc34)ccc2O1`, “inactive”. Turning to `C[C@H]1CCCCO[C@H](CN(C)C(=O)Cc2ccccc2)[C@@H](C)CN([C@@H](C)CO)C(=O)c2cc(NS(=O)(=O)c3ccc(Cl)cc3)ccc2O1`, the cytotoxicity call was “active”.

Regarding `CC(=O)NCCCC[C@@H]1NC(=O)[C@H]2C[C@@H](C(=O)NCc3ccc(F)cc3)[C@@H](c3ccc(O)cc3)N2C1=O`, the cytotoxicity call was “inactive”. As for `COc1ccc(S(=O)(=O)Nc2ccc3c(c2)C(=O)N([C@H](C)CO)C[C@H](C)[C@H](CN(C)Cc2ccc(-c4ccccc4)cc2)O3)cc1`, the cytotoxicity call was “inactive”.

For `COc1nc(C)nc(Cl)c1NC1=NCCN1`, the cytotoxicity call is “inactive”.

Consider `O=C(Nc1ccc2ccccc2c1)c1ccc(Cl)cc1Cl`, for which the cytotoxicity call is “inactive”.

With `C[C@H](CO)N1C[C@H](C)[C@H](CN(C)CC2CCCCC2)Oc2ccc(NC(=O)Nc3ccc(F)cc3)cc2CC1=O`, the cytotoxicity call is “inactive”. The entry for `C[C@@H]1CN([C@H](C)CO)C(=O)c2cc(NC(=O)Nc3cccc4ccccc34)ccc2O[C@H]1CN(C)C(=O)Nc1cccc2ccccc12` is “inactive”; for `CS(=O)(=O)Nc1ccc2c(c1)C(=O)NC2=O` it is “inactive”. As for `NCc1nncn1-c1ccc(F)cc1`, the cytotoxicity call is “inactive”. With `CNC(=O)c1cnc2n1CCN(Cc1nccn1C)C2` the entry was “inactive”. The entry for `COc1cccc(C#Cc2ccc3c(c2)O[C@@H](CN(C)C(=O)c2ccccn2)[C@@H](C)CN([C@H](C)CO)S3(=O)=O)c1` is “inactive”; for `CC[C@@H]1OC[C@@H]2CN(C(=O)CN(C)C)CC[C@H]21` it is “inactive”.
